Hit rate of the full screen: of about 150,000 compounds, about 540 (0.36%) showed an effect of 50% or more. Some of the results follow.

The test deals with Plasmodium falciparum. The test is described as follows: Primary screen in NF54 nanoGlo assay, in single point, at 2uM, 72h; a lower Z score goes with more inhibition. It is filed as functional, Erythrocyte. Conditions: timepoint 72 hour.
On to `O=C(O)[C@@H]1Cc2nc[nH]c2CN1Cc1ccccc1Cn1cccn1`, for which the “% Inhibition” value is recorded as -9% and the Z score is listed as 1.16.

`CN(C)Cc1ccnc(NC(=O)N[C@H]2CCOC23CCCC3)c1`: the “% Inhibition” value is -1% and the Z score was found to be 0.13.

For `CN1CC(C(=O)NOCc2ccccc2)C(C(F)(F)F)C1` (centres undefined), the “% Inhibition” value is -3% and the Z score amounted to 0.67.

In the case of `CCc1nsc(NCCCc2ncnn2C)n1`, the “% Inhibition” value is -3% and the Z score was determined as 0.27.

`COCCn1cnnc1CCNC(=O)c1cc2c(cc1C)OCCO2`: the “% Inhibition” value was found to be 1% and the Z score is -0.1.

With `CCc1noc(-c2cn(C3CCN(C(=O)c4sccc4C)CC3)nn2)n1`, the “% Inhibition” value is reported as -4% and the Z score is given as 0.43.

Take `Cc1ccc(F)c(NC(=O)C(=O)NCCCc2nc(C)no2)c1`: the “% Inhibition” value was -3% and the Z score was 0.31.

For the compound `CCn1c(COC(=O)c2sc(C)nc2C)nc2cc(S(=O)(=O)N(C)C)ccc21`, the “% Inhibition” value was -6% and the Z score is recorded as 0.59.

With `COc1ccccc1CNC(=O)c1nc(-c2cn(-c3ccc(Br)cc3)nc2C)no1`, the “% Inhibition” value is listed as -12% and the Z score is 1.53.

`CC1(C)CC[C@H](NC(=O)CCn2cnccc2=O)c2ccccc21`: the “% Inhibition” value is given as -8% and the Z score amounted to 0.69.

Turning to `Cc1cc(C)nc(-n2cc(C(=O)NCC#Cc3ccccn3)c(C(C)C)n2)n1`, the “% Inhibition” value came out at 1% and the Z score is on record as -0.12.

In the case of `Cc1ccc(CN(CCc2c[nH]c3ccccc23)Cc2nc(C(=O)NC[C@H]3CCCO3)co2)c(C)c1`, the “% Inhibition” value came to 2% and the Z score is listed as -0.3.

Regarding `COCCOCC(=O)N1CCC(N2CC3(CCCCC3)[C@H]2c2ccccc2)CC1`, the “% Inhibition” value was -1% and the Z score was 0.19.

As to `COC1CCCCCC1NC(=O)N1CCC(C(C)O)C1` (centres undefined), the “% Inhibition” value is reported as -17% and the Z score is 3.28.

Consider `CNc1nn(CC(=O)NCCC2=CCCCC2)c(N)c1-c1nc(-c2ccc(C)cc2)no1`, for which the “% Inhibition” value was -21% and the Z score came out at 2.65.

Consider `CO[C@H](C(=O)Nc1nc2c(Cl)cccc2n1C)C(C)C`, for which the “% Inhibition” value is -2% and the Z score is given as 0.45.

Turning to `COC[C@H]1CCN(C(=O)N2CCC(c3noc(C(C)C)n3)CC2)C1`, the “% Inhibition” value is -12% and the Z score is 1.6.

With `O=C(NC[C@H]1CC2c3ccccc3C1c1ccccc12)C1CCC1`, the “% Inhibition” value came to 16% and the Z score is listed as -1.33.

`COC(=O)[C@@H]1C[C@@H](O)CN1Cc1coc(-c2ccccc2)n1`: the “% Inhibition” value is listed as 2% and the Z score is -0.31.

Consider `O=C(NCCC1=CCCCC1)c1cccc(-n2cnnn2)c1`, for which the “% Inhibition” value is -7% and the Z score was 1.19.

Regarding `Cc1n[nH]nc1C(=O)OCCNS(=O)(=O)c1ccccc1`, the “% Inhibition” value was -1% and the Z score came out at 0.18.

For the compound `CC(=O)C1C(c2ccncc2)NC(=O)NC1(O)C(F)(F)F` (centres undefined), the “% Inhibition” value turned out to be 5% and the Z score is reported as -0.73.

As for `Cc1cnc2c(c1)N(C(=O)C[C@H]1CCC(=O)NC1)CC2`, the “% Inhibition” value was -16% and the Z score is on record as 2.49.

Take `Cn1c2ccccc2c2cc(/C=C(\NC(=O)c3ccccc3)C(=O)O)ccc21`: the “% Inhibition” value was -31% and the Z score amounted to 3.63.

Take `OC1(CNc2ccccn2)CCOCC1`: the “% Inhibition” value is -2% and the Z score is recorded as 0.17.

`O=C(Nc1ccc2nc(N3CCC(N4CCCCC4)CC3)cc(C(=O)O)c2c1)c1ccc(F)cc1`: the “% Inhibition” value was -21% and the Z score was 2.4.

Consider `O=C(Nc1ccccc1C(F)(F)F)N1CCCN(c2nc(Cc3ccccc3)nc3onc(-c4ccccc4)c23)CC1`, for which the “% Inhibition” value is 3% and the Z score is listed as -0.26.

In the case of `Cc1nc2cc(CNC(=O)[C@H](C3CC3)N3CCCC3)ccc2n1C1CC1`, the “% Inhibition” value is on record as -10% and the Z score is on record as 1.04.

Take `C[C@@H](O)CN1CCN(C2CCc3ccccc3NC2=O)CC1` (some centres undefined): the “% Inhibition” value was 0% and the Z score is recorded as 0.03.

In the case of `Cn1nc(C2CC2)cc1CNC(=O)Nc1cc([C@@H]2CCCO2)nn1C`, the “% Inhibition” value is given as -7% and the Z score amounted to 1.31.

As for `CC1CN(C(=O)CCn2nnc3ccccc3c2=O)CC(C)O1` (centres undefined), the “% Inhibition” value is -3% and the Z score was determined as 0.53.

On to `Cn1cncc1C(=O)NCc1cccc(C(F)(F)F)n1`, for which the “% Inhibition” value was 7% and the Z score is recorded as -1.16.

`FC(F)[C@@H]1CN(c2nc3ccccc3o2)CCO1`: the “% Inhibition” value is given as -10% and the Z score amounted to 1.82.

On to `COC(=O)C(C)CN1CCOC(c2nc(C)n[nH]2)C1` (centres undefined), for which the “% Inhibition” value was 0% and the Z score is listed as -0.01.

As for `Nc1cccc(-c2ccc3nnc(-c4cccnc4)n3n2)c1`, the “% Inhibition” value is -4% and the Z score worked out at 0.68.

For `O=C(c1ccccc1Cl)N1Cc2cnc(N3CCOCC3)nc2C1`, the “% Inhibition” value is listed as -10% and the Z score turned out to be 1.92.

Consider `O=C(Cc1ccsc1)N1CC[C@@](C(=O)O)(C(F)(F)F)C1`, for which the “% Inhibition” value is on record as -5% and the Z score came out at 0.58.

Turning to `Cc1cc(NC(=O)Cc2ccc(C)c(C)c2)on1`, the “% Inhibition” value is reported as -2% and the Z score is recorded as 0.32.

Take `CCc1noc(C)c1C(=O)N[C@H]1[C@@H]2CCO[C@@H]2[C@@H]1C1CCCC1`: the “% Inhibition” value is recorded as -14% and the Z score came to 2.69.

Regarding `CC(=O)Nc1nc(C)c(S(=O)(=O)N2CCN(Cc3ccccc3)CC2)s1`, the “% Inhibition” value is -14% and the Z score was 1.52.

As for `CC(C)(C)OC(=O)Nc1ccccc1Cl`, the “% Inhibition” value is on record as 8% and the Z score was -1.27.

On to `Cc1nn(CC(=O)N[C@H]2CS(=O)(=O)C2(C)C)c2ncccc12`, for which the “% Inhibition” value was -3% and the Z score was determined as 0.28.

By % Inhibition is commonly meant the drop in the measured response relative to a control, in per cent.

The record behind these values is ChEMBL document CHEMBL4888484, “Replenishing the malaria drug discovery pipeline: Screening and hit evaluation of the MMV Hit Generation Library 1 (HGL1) against asexual blood stage Plasmodium falciparum ,using a nano luciferase reporter read-out” (2022).
